The campaign covered roughly 48,000 compounds. About 120 (0.25%) were called active. Not shown: some 4% with an inconclusive outcome. Calls come from the whole dose curve; as a rule, active = well fitted activation curve with a large enough effect; inconclusive = small, poorly fitted or top-dose-only effect, or another doubt; inactive = no such curve, though single readings can be large or run the other way. This is one part of the list.

The assay in a line: Primary qHTS for Identification of Small Molecule Activators of Huntingtin-Antisense Promoter Activity. Note: nearly all actives have a fitted effect of over 55% in size. To be noted: HEK293 HTT-AS promoter firefly luciferase reporter (activity 0% = vehicle and -100% = no light), 24 h; series mostly up to 57.5 µM; activity change, positive = activation: at the top concentration. A digest of the protocol: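 HEK293 luciferase promoter-reporter cells (2,500/well) plated 24 h, then compounds added at up to 57.5 uM final for 24 h at 37 °C. Firefly luminescence by Dual-Glo, normalized to vehicle (0%) and zero RLU (-100%).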
For orientation: qHTS replaces the single test concentration by a dilution series.
Take `O=C(Nc1ccccc1C(F)(F)F)N1Cc2ccccc2Oc2ncccc21`: the “activity change, positive = activation” value is inactive: 5.41%.

For `COc1cccc(C2C=C(c3ccc(C)cc3)Nc3c(C(=O)Nc4ccc(F)cc4)cnn32)c1OC` (configuration not stated), the “activity change, positive = activation” value is inactive: -6.13%.

`CCOc1ccc(NC(=O)CSc2oc(-c3ccco3)nc2S(=O)(=O)c2ccc(Cl)cc2)cc1`: the “activity change, positive = activation” value was inactive: -29.6%.

Take `CC(NC(=O)c1ccc(Cn2c(SCc3ccccc3)nc3cccnc32)cc1)c1ccccc1` (configuration not stated): the “activity change, positive = activation” value is inactive: -0.804%.

As to `COc1ccc(CN(C(=O)c2ccc(OCC(C)C)cc2)C2CCS(=O)(=O)C2)cc1` (configuration not stated), the “activity change, positive = activation” value was inactive: -16.2%.

Consider `CC(CCc1ccccc1)NC(=O)Cn1ncc2c3ccccc3n(Cc3cccc(Cl)c3)c2c1=O` (configuration not stated), for which the “activity change, positive = activation” value is inactive: -1.44%.

As to `COc1ccc(Cl)cc1NC(=O)c1c(NCc2cccnc2)sc2c1CCCC2`, the “activity change, positive = activation” value is inactive: -19.5%.

`CC(C)(C)OC(=O)N1CCC(c2c(C(=O)NCCc3ccsc3)cnn2-c2ccc(F)cc2F)CC1`: the “activity change, positive = activation” value is inactive: -17.6%.

With `COc1ccccc1C(=O)Nc1nnc(S(=O)(=O)N2CCCCC2)s1`, the “activity change, positive = activation” value is inactive: 19.6%.

Turning to `CCOC(=O)c1c(Nc2ccc(OCC)cc2)nnc(-c2ccccc2)c1-c1ccccc1`, the “activity change, positive = activation” value was inactive: -45.4%.

In the case of `COc1ccccc1NC(=O)CSc1ncc(CO)n1Cc1ccc(F)cc1`, the “activity change, positive = activation” value was inactive: -26.1%.

Regarding `COc1ccc2ncc3c(-c4ccccc4)nn(-c4ccc(C)c(C)c4)c3c2c1`, the “activity change, positive = activation” value is inactive: -26.5%.

`CC(C)c1cnc2c(c1SCC(=O)c1ccc(Cl)cc1)c(=O)n(C)c(=O)n2C`: the “activity change, positive = activation” value is inactive: -38.1%.

`Cc1ccccc1NC(=O)Cn1c(=O)n(Cc2ccco2)c(=O)c2ccc(C(=O)NC3CCCC3)cc21`: the “activity change, positive = activation” value was inactive: -17.1%.

As for `Cc1cc(-c2ccccc2)nc2cc(C(=O)Nc3ccc(Cl)c(Cl)c3)nn12`, the “activity change, positive = activation” value is inactive: -8.7%.

For the compound `CCN(CC)Cc1ccc2cc(COC(=O)Nc3ccc(C(=O)NO)cc3)ccc2c1`, the “activity change, positive = activation” value is inactive: 11.8%.

Consider `CCOc1ccc(NCc2cccn2-c2nnc(N3CCC(C(=O)NCCc4ccc(OCC)c(OCC)c4)CC3)s2)cc1`, for which the “activity change, positive = activation” value was inactive: -52%.

Regarding `CC1CN(C(=O)Nc2ccc(C(=O)NCCc3ccc(Cl)cc3)cc2)c2ccccc2S1` (configuration not stated), the “activity change, positive = activation” value is inactive: -13.5%.

With `COCCn1c(C)cc(O)c(C(c2ccc(OC)cc2)N2CCCCC2)c1=O` (configuration not stated), the “activity change, positive = activation” value was inactive: -8.48%.

Turning to `CC(=O)Oc1cccc2c1C(=O)c1c(OC(C)=O)cc(C(=O)O)cc1C2=O`, the “activity change, positive = activation” value was inactive: -15.8%.

As for `Cc1ccccc1NC(=O)CSCn1nnc2c(=O)[nH]c(Cc3ccc(F)cc3)nc21`, the “activity change, positive = activation” value was inactive: 7.02%.

Consider `CCCC(=O)Nc1ccc2nc(SCCOc3ccccc3)sc2c1`, for which the “activity change, positive = activation” value is inactive: -6.32%.

`CCCN1Cc2cccc(C(=O)Nc3ccccc3F)c2C1=O`: the “activity change, positive = activation” value was inactive: -11.7%.

On to `Cc1cccc(NC(=O)C(=O)NCC(c2cccnc2)N2CCN(Cc3ccccc3)CC2)c1` (configuration not stated), for which the “activity change, positive = activation” value was inactive: -22.7%.

With `Cn1c(C(=O)NCCc2ccccc2)cc2cc(S(=O)(=O)N3CCCCC3)ccc21`, the “activity change, positive = activation” value is inactive: -35%.

In the case of `COc1ccc(OC)c(NC(=O)C(Cc2ccccc2)NS(=O)(=O)c2ccc3c(c2)CCC(=O)N3)c1` (configuration not stated), the “activity change, positive = activation” value was inactive: -27.8%.

`CCn1cc2nc(SCc3c(F)cccc3Cl)n(CCc3ccccc3)c(=O)c2n1`: the “activity change, positive = activation” value was inactive: -9.06%.

As to `CCN(CC)S(=O)(=O)c1ccc2c(c1)N(CC(=O)Nc1cccc(C(C)=O)c1)C(=O)CO2`, the “activity change, positive = activation” value was inactive: -19.3%.

Consider `O=C(Nc1ccc(Br)cc1)Nc1nc2c(s1)CCCCCC2`, for which the “activity change, positive = activation” value is inactive: 26.2%.

For `O=C(COCc1cc(-c2ccc3c(c2)OCO3)on1)Nc1cccc(O)c1`, the “activity change, positive = activation” value was inactive: -9.55%.

Take `CCC(=O)N1c2ccccc2CC1C(=O)NCCCN1CCN(c2ccc(F)cc2)CC1` (configuration not stated): the “activity change, positive = activation” value is inactive: -2.85%.

Regarding `Cc1ncc(CSSCc2cnc(C)c(O)c2CO)c(CO)c1O`, the “activity change, positive = activation” value is inactive: -8.59%.

On to `COc1ccc(Cl)cc1S(=O)(=O)Nc1ccc2c(c1)n(C)c(=O)n2C`, for which the “activity change, positive = activation” value was inactive: -12.2%.

With `COc1ccc(NC(=O)C(=O)Nc2ccc3nc4n(c(=O)c3c2)CCCCC4)c(OC)c1`, the “activity change, positive = activation” value was inactive: -9.75%.

As to `CCOC(=O)c1cnc2cc(Cl)c(OC)cc2c1Nc1ccc(Br)cc1C`, the “activity change, positive = activation” value was inactive: -5.79%.

`C#CCOc1c(Br)cc(C2C(C(=O)OC)=C(C)NC3=C2C(=O)c2ccccc23)cc1OCC` (configuration not stated): the “activity change, positive = activation” value was inactive: -4.4%.

Regarding `COc1ccccc1N1CCN(C(=O)C2CCN(S(=O)(=O)c3cccs3)CC2)CC1`, the “activity change, positive = activation” value is inactive: -13.9%.

Consider `COc1ccccc1C(=O)NC1(C(F)(F)F)C(=O)NC(C)=C1C#N` (configuration not stated), for which the “activity change, positive = activation” value was inactive: -15.8%.

Consider `COc1cc(OC)c(NC(=O)c2nn(C)c3c2COc2ccccc2-3)cc1Cl`, for which the “activity change, positive = activation” value is inactive: -1.41%.

On to `Cc1ccccc1NC(=O)Cn1nnc(C(=O)NCc2ccco2)c1N`, for which the “activity change, positive = activation” value was inactive: -18.9%.

For the compound `Cc1ccc(C)c(Cn2c(=O)n(CCc3ccccc3)c(=O)c3c(C)c(C)sc32)c1`, the “activity change, positive = activation” value is inactive: 7.32%.

On to `COc1ccc(Cn2nc3n(c2=O)-c2ccccc2OC3)cc1`, for which the “activity change, positive = activation” value was inactive: 11%.

For the compound `Cc1cccc(C(=O)Nc2nnc(S(=O)(=O)N3CCOCC3)s2)c1`, the “activity change, positive = activation” value is inactive: 5.34%.

`Cc1ccc(-c2nnc(Nc3cccc(Br)c3)c3ccccc23)cc1S(=O)(=O)N1CCN(C)CC1`: the “activity change, positive = activation” value is inactive: -3.71%.

As to `O=C(Nc1ccccc1)c1cc2c(-c3ccccc3)nn(-c3ccccc3)c2s1`, the “activity change, positive = activation” value is inactive: -11.4%.

Take `O=C(CSc1c2c(nc3ccc(Cl)cc13)CCCC2)N1CCN(c2ccc(Cl)cc2)CC1`: the “activity change, positive = activation” value is inactive: -13.9%.

Regarding `CCOc1ccc(OC(=O)c2sc3ncn(Cc4cccc(F)c4)c(=O)c3c2C)cc1`, the “activity change, positive = activation” value is inactive: -10.3%.

Values taken from PubChem BioAssay AID1508624 (National Center for Advancing Translational Sciences (NCATS), 2021).
